# Some of the results follow. At the low end of the ranking the order means little.
# Target: T1, GST-Rok (full length) (UniProt O34857)
# T1 sequence: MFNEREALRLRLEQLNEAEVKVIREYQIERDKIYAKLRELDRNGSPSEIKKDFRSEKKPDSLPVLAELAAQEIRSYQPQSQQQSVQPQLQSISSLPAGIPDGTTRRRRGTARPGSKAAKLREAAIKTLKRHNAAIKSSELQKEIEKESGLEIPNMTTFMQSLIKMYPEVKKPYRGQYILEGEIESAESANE
# Assay: protein binding microarray;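 also: rank score from −0.5 (least bound) to 0.5 (best bound)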
# Conditions: Rok is a gene silencer of Bacillus subtilis; high values mean tight binding; most listed sequences are background and not binding sites; double strand, one strand shown
row,Sequence,binding signal [E-score]
1,GGGTGTCA,-0.111
2,CTGTCCAA,-0.0757
3,GGCACCCA,-0.344
4,AATAGGAT,0.2
5,AGGAGAGC,-0.333
6,CTCACCGA,0.0748
7,ACCCCTCC,-0.459
8,AGAAAAGC,0.125
9,CCGTACGC,0.0343
10,AGACCTGG,-0.286
11,CAACTAGA,0.247
12,AAAGGATG,0.0304
13,ATCGAGAA,0.183
14,ACGTGGCG,-0.165
15,AAGTAGGG,0.253
16,ACAACTAG,0.351
17,GCAGACAC,1.16e-05
18,ACCACCCC,-0.292
19,CGAGAATC,-0.135
20,CACCTCTA,-0.0747
21,AGGACTCA,-0.0424
22,AGGAAGCA,0.0205

row,Sequence,binding signal [E-score]
1,ACGTCTCC,-0.191
2,ACAGTGGG,-0.195
3,GTCGCAAC,-0.0968
4,ATCATTCA,-0.0469
5,TTGCACAA,0.0994
6,TAGGCCAA,-0.0237
7,AACGATTC,0.0523
8,CCTGCCCC,-0.382
9,AGGCGGTA,-0.0699
10,AGATGCGA,0.0795
11,CGGTAAAG,0.0396
12,AAGGATCG,-0.0211
13,AGCTACGG,0.132
14,CAGTCTGG,-0.185
15,GAACTACA,0.222
16,ACGTCACC,-0.25
17,AAATAAGG,0.151
18,TAAGCGTA,0.0518
19,CAGAAACA,0.146
20,GTGCAACA,-0.166
21,AGGGAAAC,-0.113
22,CGTGCGTA,-0.0733

row,Sequence,binding signal [E-score]
1,ATAAGGTC,-0.137
2,CGGGTAAC,-0.0214
3,CTTAGAAA,-0.0462
4,CAAATCTG,-0.00951
5,ACGCTTCG,-0.102
6,AGCGCCTA,-0.0798
7,AAACAGCA,0.0272
8,AGCGTTAA,0.0101
9,CAGCGTAG,-0.23
10,ACCCACGA,-0.0692
11,AGTCCCGC,-0.306
12,AGGGGATG,-0.359
13,AAAGCGAA,0.00312
14,TATAGAAA,0.363
15,AATATACG,0.268
16,ACATGACG,0.213
17,ATTCATCA,0.111
18,GATAGTGA,0.162
19,AAGTCGGC,-0.0992
20,AAGCCAGA,-0.169
21,AAAGAAAG,0.132
22,AAAGAAGT,-0.0186

row,Sequence,binding signal [E-score]
1,GACATCAA,0.0033
2,AATTACGA,0.266
3,ATTATAAT,0.328
4,CCAGGAGC,-0.14
5,AGCTGACC,-0.227
6,ACTGAGAG,-0.12
7,AGCCTGAA,-0.227
8,CCATACGC,0.0524
9,CGTCTTGC,0.0521
10,ATGGGGAA,-0.053
11,AGATCGCT,0.0961
12,TGCTGTAA,0.133
13,AAATCGCT,0.19
14,GGATCCCC,-0.384
15,AACTGGCC,-0.00391
16,ATCAAACA,0.104
17,CTCGTACA,-0.0435
18,AGATTGGA,0.177
19,GATAAGTA,0.24
20,CAGCCGTC,-0.33
21,AGGTACCC,-0.00763
22,TGCGTGAA,-0.136

row,Sequence,binding signal [E-score]
1,AGCGCGCC,-0.239
2,CATATCGA,0.0224
3,GACGTCGC,-0.246
4,AACGCCTG,-0.315
5,GTCTCTTA,-0.194
6,CCGGCAGC,-0.14
7,AATACACT,0.186
8,CAGTTCGC,-0.231
9,ATCTGCTA,0.228
10,CACAGGCC,-0.0785
11,AAATCGCC,0.0434
12,GGATGTAC,0.153
13,CTTTGCCC,-0.136
14,ACTCGACG,-0.0298
15,CTGAAAGA,0.0747
16,ATTTAAAA,0.0774
17,GACCTTAC,-0.0577
18,AAGTCTCA,-0.13
19,AATTGTTC,0.285
20,TAGGGGCA,-0.0733
21,ACGGAGGC,-0.345
22,AAACCTTA,-0.0224
